The other results are listed elsewhere or left out. One pool of 16,384 single-stranded DNAs met each Rep nickase domain in vitro (1 h at 37 °C, 3 µM enzyme); the outer parts of the 90-letter strands are left off. Numbers give uncut DNA relative to the enzyme-free pool, as log2; uncut sequences lie near 0, cut ones below; no hit call is given. The scaling is to total reads; uncut strands gain when others are lost, and binding without cutting may add a little.
These sequences were tested on T1, Rep nickase domain of porcine circovirus 2 (assay: uncleaved DNA left, log2 of reads against the no-enzyme library (log2 ratio); higher = less cleavage (more negative = more Rep cleavage of the k-mer); sequences stand for … in CTCGTCCG…ACCGGAGA).
T1 sequence (protein, residues 2-116, tag omitted): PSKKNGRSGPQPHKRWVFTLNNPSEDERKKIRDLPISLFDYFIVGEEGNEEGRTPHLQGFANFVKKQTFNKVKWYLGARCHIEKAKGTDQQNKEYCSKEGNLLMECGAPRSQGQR
Method: (§1)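 A pool of 90-nt single-stranded DNAs with seven random bases just before the constant AC of the nick site (name = the seven bases) was cut by 3 µM recombinant His6-SUMO-tagged Rep nickase domain (300 nM DNA, 50 mM HEPES pH 8.0, 50 mM NaCl, 1 mM MnCl2, 1 h, 37 °C, three replicates). Uncut DNA was amplified and sequenced.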

Sequence	uncleaved DNA left (log2)
ATACATA	-0.0358
GTGAGCG	0.0405
CACCATA	-0.249
CCTCGCA	0.13
AGGTTGC	0.163
TGCCGTG	0.0376
GTCAGAG	0.235
GCCAGGC	0.0882
ATCCGGA	0.0663
GTTCGAG	0.148
GAGGATG	0.00263
CGTCGTT	-0.816
CGAGTCA	-0.412
GCAGTCG	0.21
TACCGTT	-2.96
ATGGGAA	0.0388
ATAGCGC	-0.088
TCATGGA	0.0572
GACCTTG	0.0475
AGTCTGT	-1.2

Sequence	uncleaved DNA left (log2)
TACTCTG	-0.177
AGACTCA	0.0107
GCGGAAG	0.0913
CGTTAGT	-2.77
CTCGAGC	0.157
TAACTCT	-0.692
CAGAAAC	-0.000894
AACGGGG	0.337
ACCACCT	0.0234
TCACGCA	-0.103
TGTAGCG	0.177
GTCCTTC	-0.013
TTCACAG	0.176
TGTCCCC	-0.465
CTGAAGT	-0.0685
TGCACAG	0.146
CCTGGAA	0.045
TATCATG	0.025
AATACTT	-3.46
GGCTTCG	0.195

The sequences below were run on T2, Rep nickase domain of tomato golden mosaic virus in the same assay as above.
T2 sequence (protein, residues 1-124, tag omitted): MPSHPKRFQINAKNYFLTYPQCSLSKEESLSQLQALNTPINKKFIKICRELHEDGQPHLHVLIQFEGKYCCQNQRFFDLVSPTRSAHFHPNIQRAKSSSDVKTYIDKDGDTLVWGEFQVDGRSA
Method: as §1

Sequence	uncleaved DNA left (log2)
ATACATA	0.0775
GTGAGCG	-0.101
CACCATA	-0.0888
CCTCGCA	0.105
AGGTTGC	-0.0192
TGCCGTG	-0.0815
GTCAGAG	0.162
GCCAGGC	0.0447
ATCCGGA	-0.0462
GTTCGAG	-0.0095
GAGGATG	-0.0435
CGTCGTT	-0.0935
CGAGTCA	0.00224
GCAGTCG	0.0463
TACCGTT	-0.26
ATGGGAA	-0.11
ATAGCGC	-0.0856
TCATGGA	-0.00115
GACCTTG	0.0944
AGTCTGT	0.103

Sequence	uncleaved DNA left (log2)
TACTCTG	-0.0833
AGACTCA	0.068
GCGGAAG	-0.00938
CGTTAGT	0.101
CTCGAGC	0.00377
TAACTCT	-1.62
CAGAAAC	0.153
AACGGGG	0.19
ACCACCT	-0.0153
TCACGCA	-0.143
TGTAGCG	-0.0851
GTCCTTC	-0.0619
TTCACAG	-0.156
TGTCCCC	0.0434
CTGAAGT	0.0196
TGCACAG	0.0625
CCTGGAA	-0.037
TATCATG	-0.0427
AATACTT	-0.0746
GGCTTCG	0.052

The sequences below were run on T3, Rep nickase domain of tomato yellow leaf curl virus in the same assay as above.
T3 sequence (protein, residues 1-136, tag omitted): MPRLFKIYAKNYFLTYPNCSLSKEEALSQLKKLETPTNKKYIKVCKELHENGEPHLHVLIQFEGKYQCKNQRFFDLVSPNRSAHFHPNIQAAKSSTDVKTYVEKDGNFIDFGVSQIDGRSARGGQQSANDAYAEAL
Method: as §1

Sequence	uncleaved DNA left (log2)
ATACATA	0.0726
GTGAGCG	-0.0427
CACCATA	0.0191
CCTCGCA	-0.0341
AGGTTGC	0.0157
TGCCGTG	-0.0747
GTCAGAG	0.0705
GCCAGGC	-0.00656
ATCCGGA	-0.146
GTTCGAG	-0.0681
GAGGATG	-0.0991
CGTCGTT	-0.106
CGAGTCA	0.107
GCAGTCG	0.115
TACCGTT	-0.085
ATGGGAA	-0.238
ATAGCGC	0.016
TCATGGA	-0.0341
GACCTTG	0.00421
AGTCTGT	-0.00622

Sequence	uncleaved DNA left (log2)
TACTCTG	0.0135
AGACTCA	0.103
GCGGAAG	0.0355
CGTTAGT	0.0635
CTCGAGC	0.103
TAACTCT	0.00621
CAGAAAC	0.0497
AACGGGG	-0.0512
ACCACCT	-0.161
TCACGCA	-0.15
TGTAGCG	0.0426
GTCCTTC	-0.0378
TTCACAG	-0.0289
TGTCCCC	0.101
CTGAAGT	0.00873
TGCACAG	0.111
CCTGGAA	-0.099
TATCATG	-0.0315
AATACTT	-0.0967
GGCTTCG	0.136
